{"source": "the supplement of paper PMC8728848", "assay_in_all_cases": "glycan array binding signal (z-score within array); higher = stronger binding", "conditions_in_all_cases": "glycan notation: IUPAC condensed, linker removed", "key": {"Neu5Ac(a2-8)Neu5Ac": {"molecular_target": "Neu5Ac(a2-8)Neu5Ac", "procedure,_shortened": "(§1)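 The binding signal is a Z-score computed within each array. Data were drawn from 3228 arrays in the Consortium for Functional Glycomics database, restricted to those with a known protein sequence. Scores were averaged over arrays of the same protein sequence at different concentrations or buffers, and over linkers, and negative values can be taken as non-binding.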"}, "[1]": {"molecular_target": "Neu5Ac(a2-8)Neu5Ac(a2-3)Gal(b1-3)GalNAc(b1-4)[Neu5Ac(a2-3)]Gal(b1-4)Glc", "procedure,_shortened": "as §1"}, "[2]": {"molecular_target": "Neu5Ac(a2-8)Neu5Ac(a2-3)Gal(b1-3)GalNAc(b1-4)[Neu5Ac(a2-8)Neu5Ac(a2-3)]Gal(b1-4)Glc", "procedure,_shortened": "as §1"}, "[3]": {"molecular_target": "Neu5Ac(a2-8)Neu5Ac(a2-3)Gal(b1-4)Glc", "procedure,_shortened": "as §1"}, "[4]": {"molecular_target": "Neu5Ac(a2-8)Neu5Ac(a2-3)Gal(b1-4)GlcNAc", "procedure,_shortened": "as §1"}, "[5]": {"molecular_target": "Neu5Ac(a2-8)Neu5Ac(a2-3)[Gal(b1-3)GalNAc(b1-4)]Gal(b1-4)Glc", "procedure,_shortened": "as §1"}, "[6]": {"molecular_target": "Neu5Ac(a2-8)Neu5Ac(a2-3)[GalNAc(b1-4)]Gal(b1-4)Glc", "procedure,_shortened": "as §1"}, "[7]": {"molecular_target": "Neu5Ac(a2-8)Neu5Ac(a2-8)Neu5Ac", "procedure,_shortened": "as §1"}, "[8]": {"molecular_target": "Neu5Ac(a2-8)Neu5Ac(a2-8)Neu5Ac(a2-3)Gal(b1-4)Glc", "procedure,_shortened": "as §1"}, "[9]": {"molecular_target": "Neu5Ac(a2-8)Neu5Ac(a2-8)Neu5Ac(a2-3)[Gal(b1-3)GalNAc(b1-4)]Gal(b1-4)Glc", "procedure,_shortened": "as §1"}, "[10]": {"molecular_target": "Neu5Ac(a2-8)Neu5Ac(a2-8)Neu5Ac(a2-3)[GalNAc(b1-4)]Gal(b1-4)Glc", "procedure,_shortened": "as §1"}, "[11]": {"molecular_target": "Neu5Ac(a2-8)Neu5Ac(a2-8)Neu5Ac(a2-8)Neu5Ac(a2-3)[GalNAc(b1-4)]Gal(b1-4)Glc", "procedure,_shortened": "as §1"}, "[12]": {"molecular_target": "Neu5Ac(a2-8)Neu5Gc(a2-3)Gal(b1-4)GlcNAc", "procedure,_shortened": "as §1"}, "[13]": {"molecular_target": "Neu5Ac(b2-6)Gal(b1-4)GlcNAc", "procedure,_shortened": "as §1"}, "Neu5Ac(b2-6)GalNAc": {"molecular_target": "Neu5Ac(b2-6)GalNAc", "procedure,_shortened": "as §1"}, "[14]": {"molecular_target": "Neu5Ac9Ac(a2-3)Gal(b1-3)GlcNAc", "procedure,_shortened": "as §1"}, "[15]": {"molecular_target": "Neu5Ac9Ac(a2-3)Gal(b1-4)GlcNAc", "procedure,_shortened": "as §1"}, "[16]": {"molecular_target": "Neu5Ac9Ac(a2-6)Gal(b1-4)GlcNAc", "procedure,_shortened": "as §1"}, "[17]": {"molecular_target": "Neu5Gc(a2-3)Gal(b1-3)GlcNAc", "procedure,_shortened": "as §1"}, "[18]": {"molecular_target": "Neu5Gc(a2-3)Gal(b1-3)[Fuc(a1-4)]GlcNAc", "procedure,_shortened": "as §1"}, "Neu5Gc(a2-3)Gal(b1-4)Glc": {"molecular_target": "Neu5Gc(a2-3)Gal(b1-4)Glc", "procedure,_shortened": "as §1"}, "[19]": {"molecular_target": "Neu5Gc(a2-3)Gal(b1-4)GlcNAc", "procedure,_shortened": "as §1"}, "[20]": {"molecular_target": "Neu5Gc(a2-3)Gal(b1-4)GlcNAc(b1-3)Gal(b1-4)GlcNAc(b1-2)Man(a1-3)[Neu5Gc(a2-3)Gal(b1-4)GlcNAc(b1-3)Gal(b1-4)GlcNAc(b1-2)Man(a1-6)]Man(b1-4)GlcNAc(b1-4)GlcNAc", "procedure,_shortened": "as §1"}, "[21]": {"molecular_target": "Neu5Gc(a2-3)Gal(b1-4)[Fuc(a1-3)]GlcNAc", "procedure,_shortened": "as §1"}, "[22]": {"molecular_target": "Neu5Gc(a2-6)Gal(b1-4)GlcNAc", "procedure,_shortened": "as §1"}, "Neu5Gc(a2-6)GalNAc": {"molecular_target": "Neu5Gc(a2-6)GalNAc", "procedure,_shortened": "as §1"}, "[23]": {"molecular_target": "Neu5Gc(a2-8)Neu5Ac(a2-3)Gal(b1-4)GlcNAc", "procedure,_shortened": "as §1"}, "[24]": {"molecular_target": "Neu5Gc(a2-8)Neu5Gc(a2-3)Gal(b1-4)GlcNAc", "procedure,_shortened": "as §1"}, "[25]": {"molecular_target": "Neu5Gc(a2-8)Neu5Gc(a2-3)Gal(b1-4)GlcNAc(b1-3)Gal(b1-4)GlcNAc", "procedure,_shortened": "as §1"}, "[26]": {"molecular_target": "Neu5Gc(a2-8)Neu5Gc(a2-6)Gal(b1-4)GlcNAc", "procedure,_shortened": "as §1"}, "[27]": {"molecular_target": "Neu5Gc(b2-6)Gal(b1-4)GlcNAc", "procedure,_shortened": "as §1"}}, "note": "Some of the results follow."}
{"binder": "Langerin K313I (Homo sapiens), Q9UJ71 (protein) STLNAQIPELKSDLEKASALNTKIRALQGSLENMSKLLKRQNDILQVVSQGWKYFKGNFYYFSLIPKTWYSAEQFCVSRNSHLTSVTSESEQEFLYKTAGGLIYWIGLTKAGMEGDWSWVDDTPFNKVQSARFWIPGEPNNAGNNEHCGNIKAPSLQAWNDAPCDITFLFICKRPYVPSEP", "values": [{"measurement": "glycan array binding signal (z-score)", "setting": "Neu5Ac(a2-8)Neu5Ac", "value": -0.309}, {"measurement": "glycan array binding signal (z-score)", "setting": "[1]", "value": -0.267}, {"measurement": "glycan array binding signal (z-score)", "setting": "[2]", "value": -0.31}, {"measurement": "glycan array binding signal (z-score)", "setting": "[3]", "value": -0.362}, {"measurement": "glycan array binding signal (z-score)", "setting": "[4]", "value": -0.371}, {"measurement": "glycan array binding signal (z-score)", "setting": "[5]", "value": -0.175}, {"measurement": "glycan array binding signal (z-score)", "setting": "[6]", "value": -0.171}, {"measurement": "glycan array binding signal (z-score)", "setting": "[7]", "value": -0.331}, {"measurement": "glycan array binding signal (z-score)", "setting": "[8]", "value": -0.299}, {"measurement": "glycan array binding signal (z-score)", "setting": "[9]", "value": -0.317}, {"measurement": "glycan array binding signal (z-score)", "setting": "[10]", "value": -0.311}, {"measurement": "glycan array binding signal (z-score)", "setting": "[11]", "value": -0.315}, {"measurement": "glycan array binding signal (z-score)", "setting": "[12]", "value": -0.376}, {"measurement": "glycan array binding signal (z-score)", "setting": "[13]", "value": -0.285}, {"measurement": "glycan array binding signal (z-score)", "setting": "Neu5Ac(b2-6)GalNAc", "value": -0.369}, {"measurement": "glycan array binding signal (z-score)", "setting": "[14]", "value": -0.383}, {"measurement": "glycan array binding signal (z-score)", "setting": "[15]", "value": -0.377}, {"measurement": "glycan array binding signal (z-score)", "setting": "[16]", "value": -0.397}, {"measurement": "glycan array binding signal (z-score)", "setting": "[17]", "value": -0.369}, {"measurement": "glycan array binding signal (z-score)", "setting": "[18]", "value": -0.287}, {"measurement": "glycan array binding signal (z-score)", "setting": "Neu5Gc(a2-3)Gal(b1-4)Glc", "value": -0.085}, {"measurement": "glycan array binding signal (z-score)", "setting": "[19]", "value": -0.335}, {"measurement": "glycan array binding signal (z-score)", "setting": "[20]", "value": 0.158}, {"measurement": "glycan array binding signal (z-score)", "setting": "[21]", "value": -0.121}, {"measurement": "glycan array binding signal (z-score)", "setting": "[22]", "value": -0.234}, {"measurement": "glycan array binding signal (z-score)", "setting": "Neu5Gc(a2-6)GalNAc", "value": -0.351}, {"measurement": "glycan array binding signal (z-score)", "setting": "[23]", "value": -0.318}, {"measurement": "glycan array binding signal (z-score)", "setting": "[24]", "value": -0.296}, {"measurement": "glycan array binding signal (z-score)", "setting": "[25]", "value": -0.356}, {"measurement": "glycan array binding signal (z-score)", "setting": "[26]", "value": -0.372}, {"measurement": "glycan array binding signal (z-score)", "setting": "[27]", "value": -0.35}]}
